Results reported in publication PMC6919601, “Identification of Plasmodium dipeptidyl aminopeptidase allosteric inhibitors by high throughput screening” (PLoS ONE, 2019).
About 230 (0.21%) of roughly 110,000 compounds showed an effect of 50% or more. The list shows a part of the results.

biological target: DPAP1 (Plasmodium falciparum, UniProt Q8IIJ9); test: primary screen, percent inhibition; read by cleavage of a fluorogenic dipeptide substrate; higher = more effect of the substance; parameters: species or system P. falciparum D10 trophozoite lysates; single well
Sequence (Q8IIJ9 whole entry, looked up): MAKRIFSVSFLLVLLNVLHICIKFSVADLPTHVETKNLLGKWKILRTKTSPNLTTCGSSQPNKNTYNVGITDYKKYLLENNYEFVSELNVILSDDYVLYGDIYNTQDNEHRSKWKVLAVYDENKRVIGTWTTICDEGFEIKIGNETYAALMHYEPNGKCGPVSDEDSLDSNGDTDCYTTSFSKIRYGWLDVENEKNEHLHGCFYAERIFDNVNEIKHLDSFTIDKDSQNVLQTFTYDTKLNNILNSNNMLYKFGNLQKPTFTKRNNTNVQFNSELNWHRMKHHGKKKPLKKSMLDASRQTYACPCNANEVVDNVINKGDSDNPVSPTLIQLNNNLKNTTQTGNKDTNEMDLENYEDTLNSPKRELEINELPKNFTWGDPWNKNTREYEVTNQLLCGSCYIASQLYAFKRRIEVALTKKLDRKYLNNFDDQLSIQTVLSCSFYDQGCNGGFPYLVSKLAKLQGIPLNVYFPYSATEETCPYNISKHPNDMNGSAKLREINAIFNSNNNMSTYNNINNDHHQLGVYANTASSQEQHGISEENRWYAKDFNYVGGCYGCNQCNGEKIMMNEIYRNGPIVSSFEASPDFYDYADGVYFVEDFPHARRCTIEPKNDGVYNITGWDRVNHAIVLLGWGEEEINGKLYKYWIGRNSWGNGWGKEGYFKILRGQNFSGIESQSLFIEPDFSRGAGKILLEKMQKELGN
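Also: 30 min substrate incubation versus DMSO and 10 µM JCP410 controls.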

Row | SMILES | % Inhibition @ 10 uM [%]
1 | O=C(Cn1ncc2ccccc21)N1CCc2ccccc2C1 | -3.47
2 | O=c1c2cccnc2n(Cc2ccc(Cl)cc2)c(=O)n1Cc1ccco1 | -1.66
3 | COc1ccc(CN2CCN(Cc3ccccc3F)CC2)c(OC)c1OC | -6.27
4 | Cc1ccc(C)c(NC(=O)c2ccccc2Br)c1 | 2.46
5 | COC(=O)c1ccc(CS(=O)(=O)c2ccccc2)o1 | 0.111
6 | O=C(Nc1nc(-c2ccc(Cl)cc2)cs1)N1CCOCC1 | -3.48
7 | CCOc1ccc(CC(=O)Nc2sc3c(c2C#N)CCC3)cc1OCC | 1.82
8 | CC(C)n1c(NCc2cccs2)nc2ccccc21 | -3.5
9 | O=C(Cn1nc(Cc2cccnc2)c2ccccc2c1=O)NCCCN1CCCC1=O | -4.92
10 | CCc1ccc(CNC(=O)CCCn2c(=O)c3cccn3c3cccnc32)cc1 | 1.63
11 | CC(C)CN(CCNC(=O)Cn1ncc2c3ccccc3n(C)c2c1=O)CC(C)C | -3.35
12 | O=C(O)c1nn2c(C(F)(F)F)cc(-c3ccco3)nc2c1Cl | 5.31
13 | OCC1CCCCN1Cc1cccc(Cl)c1Cl (centres unmarked) | -2.36
14 | O=C(NC1CCCN(C(=O)OCc2ccccc2)CC1=O)C(CC(=O)N1CCOCC1)CS(=O)(=O)Cc1ccccc1 (centres unmarked) | 1.35
15 | Cc1ccc(NC(=O)CCc2nnc3ccc(N4CCC(C)CC4)nn23)nc1 | -1.39
16 | CCOC(=O)C1=C(O)/C(=C\c2ccc(Cl)cc2)N=C1C | 3.76
17 | CCOC(=O)c1sc2nc(C)cc(COC)c2c1NC(=O)CN1CCCCC1 | -2.63
18 | O=S(=O)(c1ccc(-n2cccn2)cc1)N1CCN(C2CCCCC2)CC1 | -0.0621
19 | CCOC(=O)c1cc2c(-c3cccc(OC)c3)nn(C)c2s1 | 7.39
20 | CCn1c(C(=O)N2CCC(C(=O)NC(C)c3ccccc3)CC2)cc2sccc21 (centres unmarked) | 1.77
21 | COc1cccc(Cn2cccc2C2=NC(CC(C)C)CO2)c1OC (centres unmarked) | 0.163
22 | COc1ccc(NC(=O)C(=O)NC2CCCC2)cc1 | 3.15
23 | COc1ccccc1CNS(=O)(=O)c1cc(-c2onc(C)c2C)ccc1C | -6.66
24 | COc1ccccc1/C=C/CN1CCN(CCOCCO)CC1 | -0.0494
25 | CN(C)c1ccc(NC(=O)Cn2nc(C(F)(F)F)cc2C2CC2)cc1 | -5.06
26 | CC(=O)C1=C(O)C(=O)N(C)C1c1ccc(Cl)cc1 (centres unmarked) | 5.8

Row | SMILES | % Inhibition @ 10 uM [%]
27 | Cc1ccc2oc(=O)c3cc(C(=O)Nc4ccc(Cl)cn4)sc3c2c1 | -2.45
28 | O=c1/c(=C\c2ccc(F)cc2)sc2nc3cc(Br)cnc3n12 | 1.67
29 | Cc1ccc(-n2c(SCC(=O)c3ccccc3)nc3nncc-3c2O)cc1Cl | 14.6
30 | Cc1c(CNCCc2ccccc2Cl)c(C(=O)O)c(C)n1Cc1ccccc1F | -1.92
31 | O=C(C(F)F)N1CCN(c2ccccc2)CC1 | -2.42
32 | CC(=O)NS(=O)(=O)c1ccc(NS(=O)(=O)c2ccccc2[N+](=O)[O-])cc1 | -0.239
33 | CC1(C)CC(=O)c2cc(OCC(=O)NCCC3=CCCCC3)ccc2O1 | -1.96
34 | COc1ccc2nc(-n3nc(C)cc3C)c(-n3nc(C)cc3C)nc2c1 | 15.3
35 | O=c1c(-c2ccccc2)coc2cc(OCc3ccccc3)ccc12 | -1.68
36 | CCCC(=O)Nc1ccc(S(=O)(=O)N2CCC(C)CC2)cc1 | -0.968
37 | O=C(NCCCN1CCCc2ccccc21)Nc1cccc2ccccc12 | 3.32
38 | CC1C(c2ccccc2)=[N+]([O-])C(C)(c2ccc(Cl)cc2)N1O (centres unmarked) | -7.45
39 | COc1cc(NC(=O)c2cc3ccccc3cc2O)c(OC)cc1NC(=O)c1cc2ccccc2cc1O | 2.7
40 | CC(C)C(=O)Nc1ccc(NC(=O)COc2ccc(C(C)C)cc2)cc1 | -4.43
41 | CCC(C(=O)Nc1ccc(Cl)c(Cl)c1)c1ccccc1 (centres unmarked) | -5.2
42 | Cc1ccc(-c2cc(C(=O)N3CC(C)CC(C)C3)c3ccccc3n2)o1 (centres unmarked) | 2.84
43 | CC(=O)c1ccc(Nc2cc(C)nc3ncnn23)cc1 | -0.0938
44 | CCn1c2ccccc2c2cc(C3C4CCCC=C4C(C#N)=C(N)C3(C#N)C#N)ccc21 (centres unmarked) | 3.04
45 | COc1ccccc1CNC(=O)CCc1c(C)c2cc3c(C)coc3c(C)c2oc1=O | -4.39
46 | CC(=O)C1=C(O)C(=O)N(c2ccc(Br)cn2)C1c1ccc(Cl)cc1 (centres unmarked) | 1.94
47 | CC(=O)c1c(C)n(CCC2=CCCCC2)c2ccc(O)cc12 | -0.401
48 | C#CCOc1c(Br)cc(C2C(C#N)=C(N)Oc3cc4c(cc32)OCO4)cc1OC (centres unmarked) | 3.87
49 | O=C(Nc1cccnc1Cl)c1nn2c(c1Cl)NC(c1ccco1)CC2C(F)(F)F (centres unmarked) | -2.8
50 | N#CCSc1ncnc2scc(-c3ccc(Br)cc3)c12 | -5.6
51 | O=C(COCc1cc(-c2cccs2)on1)NCC1CCCO1 (centres unmarked) | -4.96
52 | Cc1[nH]c2ccccc2c1SCCNC(=O)C(C)(C)Oc1ccc(Cl)cc1 | -3.27

Row | SMILES | % Inhibition @ 10 uM [%]
53 | O=C(C1CCN(S(=O)(=O)c2ccc3nc(O)ccc3c2)CC1)N1CCc2ccccc2C1 | 1.42
54 | Cc1ccc2oc(-c3cccc(N)c3C)nc2c1 | -7.27
55 | Cc1cc(Br)ccc1OCC(=O)O/N=C(\N)c1cccnc1 | -6.94
56 | N#CCCN1CCN(S(=O)(=O)c2ccc(S(=O)(=O)NCc3ccccc3)cc2)CC1 | 1.62
57 | COc1ccc(Nc2nc(N)c3ccccc3n2)c(OC)c1 | -2.29
58 | COC(=O)c1ccc(CNc2ccc(F)c(Cl)c2)cc1 | 0.273
59 | O=S(=O)(c1ccc2c(c1)Cc1cc(S(=O)(=O)N3CCCCC3)ccc1-2)N1CCCCC1 | -0.598
60 | Cc1cc(/C=c2\sc3nc4ccccc4n3c2=O)c(C)n1C(C)C | 7.26
61 | CC1CCc2c(sc3nnn(CCc4ccccc4)c(=O)c23)C1 (centres unmarked) | -1.18
62 | O=C(COc1ccccc1)Nc1ccc(Cl)cc1C(=O)O | -1.99
63 | CCc1ccc(C2C3=C(CCCC3=O)OC3=C2C(=O)CCC3)cc1 | 2.3
64 | CCCCOc1ccc(CSc2nnc(C)n2N)cc1 | 0.484
65 | COc1ccc(S(=O)(=O)NCc2csc(-c3ccccc3)n2)cc1 | 2.57
66 | O=C1S/C(=C\c2ccccc2)C(=O)N1CNc1cccc(F)c1 | -3.43
67 | CS(=O)(=O)/C=C/C(Cc1ccccc1)NC(=O)c1cnccn1 (centres unmarked) | -4.82
68 | O=C(NCc1ccccc1Cl)C1CCN(C(=O)c2cnn(-c3ccccc3)c2-n2cccc2)CC1 | -1.6
69 | CNC(=O)C(C)n1c2ccccc2c2cnnc(O)c21 (centres unmarked) | 4.55
70 | CCCn1c(=O)c(C(=O)Nc2ccc(Br)cc2)c(O)c2ccccc21 | 0.177
71 | COCCNC(=O)/C(C#N)=C/c1c(Oc2ccc(C)cc2)nc2c(C)cccn2c1=O | 0.315
72 | COc1ccc(CN2CCN(c3ncnc4onc(-c5ccc(F)cc5)c34)CC2)c(OC)c1OC | -4.02
73 | CCOc1ccc(NC(=O)c2cccc(OC)c2)cc1 | 7.27
74 | CCCNC(=O)CSC1=N/C(=C/c2ccc(F)cc2)C(=O)N1CC | 2.68
75 | Fc1cccc(Cl)c1-c1nnc2ccc3ccccc3n12 | 2.24
76 | CCO/C(O)=C(\C(=N)NCCCO)C(=O)c1ccccc1 | -4.19
77 | O=C(NCCCN1CCCC1=O)C1CCN(c2ncnc3c2sc2cccc(F)c23)CC1 | -0.85
78 | COc1ccccc1OCCn1c(=O)oc2ccc(C)cc21 | -2.16

Row | SMILES | % Inhibition @ 10 uM [%]
79 | Cc1nc2c(cc1C(=O)/C=C/c1cccs1)CCCC2 | 2.47
80 | COc1ccc(-c2nnc3n(Cc4ccccc4Cl)c(=O)c4ccccc4n23)cc1OC | -7.29
81 | Cc1ccc(OCC(=O)NCc2nc(-c3ccccc3)no2)c(Br)c1 | 2.14
82 | COCCNC(=O)CSc1nc2nc(C)cc(C)n2n1 | 4.36
83 | CCc1ccc(CNC(=O)c2nn(C)c3c2CS(=O)(=O)c2ccccc2-3)cc1 | -2.58
84 | Cc1cc(C)c2c(N)c(S(=O)Cc3ccc(Cl)cc3)sc2n1 (centres unmarked) | 6.27
85 | CC1(C)OC(=O)N(CCOC23CC4CC(CC(C4)C2)C3)C1(C)O (centres unmarked) | 4.09
86 | CC(=O)N1CCC(NCC(C)(C)CN(C)C)CC1 | 1.57
87 | Cc1nc(-c2ccccc2)c2c(O)ccnc2n1 | -4.76
88 | Cc1ccc(NC(=O)c2ccc3c(c2)OCO3)c(Br)c1 | 1.57
89 | COc1ccc(N(CC(=O)Nc2ccc(C)cc2)S(=O)(=O)c2ccccc2)cc1Cl | -3.28
90 | O=S1(=O)N=C(c2ccccc2)c2ccccc2N1 | 2.95
91 | C#CCn1c(-c2ccc(OC)cc2)nc2ccccc21 | -0.551
92 | CCN(CC)CCN(C)C1CCN(C)CC1 | 1.38
93 | CC(C)Oc1ccc(-c2nc3s/c(=C\c4ccc(F)cc4)c(=O)n3n2)cc1 | 0.487
94 | CCCCCC1NC(=O)NC1CCCCCC(=O)O (centres unmarked) | 7.05
95 | Cc1ccc(NC(=O)c2cc3nc(C(F)F)cc(C(F)F)n3n2)cc1C | 3.24
96 | Cc1csc2nc(CSc3nnc(N)s3)cc(=O)n12 | -7.65
97 | N#Cc1c(NC(=O)c2cc(=O)c3cc(Cl)ccc3o2)sc2c1CCCC2 | -1.47
98 | CC(C)(C)c1ccc(Oc2nc3ccccn3c(=O)c2/C=C(\C#N)C(=O)NCc2ccco2)cc1 | 5.89
99 | CS(=O)(=O)N1CCN(c2ccc(NC(=O)c3ccco3)cc2)CC1 | -6.02
100 | CCOC(=O)c1c(C)n(-c2cccc(Cl)c2)c2ccc(O)cc12 | -1.69
101 | COC(=O)C1=C(C)N2C(=O)CSC2=NC1c1ccc2c(c1)OCO2 (centres unmarked) | 3.87
